Data from PubChem BioAssay AID686978 (National Center for Advancing Translational Sciences (NCATS), 2013).
About 64,000 (15%) of roughly 420,000 compounds were called active. The inconclusive results got no clear call from the source; some entries with a clear call stand among them for comparison. Calls come from the whole dose curve; as a rule, active = well fitted inhibition curve with a large enough effect; inconclusive = small, poorly fitted or top-dose-only effect; inactive = flat fitted curve, though single readings scatter. No potency is given beside an inconclusive call; the fits are too rough.

Assay: qHTS for Inhibitors of human tyrosyl-DNA phosphodiesterase 1 (TDP1): qHTS in cells in absence of CPT; note: nearly all actives have a fitted effect of over 55% in size
Details: DT40 Tdp1-/- hTDP1 cells, no CPT, ATP luminescence, 48 h; series mostly up to 46.2 µM
Outline: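 Readout: luminescence from CellTiter-Glo after 30 min in the dark at RT. Cells: DT40 Tdp1-/- with stable hTDP1, 400/well. Exposure: compounds alone, ≥48 hr, 37 °C.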
Potency is the fitted concentration of half-maximal effect; tags give direction and shape of the fitted curve.

Structure (SMILES)	Potency
CC(C)C(NC(=O)CN(c1ccc2c(c1)OCCO2)S(=O)(=O)c1ccccc1)C(C)C	inactive
OC1(c2ccc3c(c2)CN(Cc2ccccn2)CCO3)CCN(c2ccccc2F)CC1	inconclusive [inhibitor, single point]
Oc1ccc(CN2CCCc3ccccc32)c2cccnc12	active: 4.61 µM
CCCC1NC(=O)c2cccnc2-n2c1nc1cc(C)cc(C)c1c2=O (stereo not given)	inconclusive [inhibitor, single point]
CCOC(=O)C1CCN(Cc2ccc(F)cc2F)CC1	inactive
COc1ccc(NS(=O)(=O)c2cc(NC(=O)c3cnccn3)ccc2OC)cc1Br	inconclusive [inhibitor, partial curve]
CC(C)(C)NCC(=O)N/N=C/c1ccc(OCc2ccccc2)cc1	inconclusive [inhibitor, single point]
CCOc1ccccc1Nc1cc(-c2ccccc2)nc(C)n1	inconclusive [inhibitor, single point]
Cc1onc(-c2c(F)cccc2Cl)c1C(=O)Nc1nc2c(s1)CCCC2	inconclusive [inhibitor, single point]
CC(=O)C(C(C)=O)c1c(Cl)c(O)c(O)c2c(C(=O)c3ccccc3)coc12	active: 3.66 µM
COC(CNC(=O)Cn1nc(Cc2ccncc2)c2ccccc2c1=O)OC	inactive
O=c1oc2cc(OCc3c(F)c(F)c(F)c(F)c3F)ccc2cc1-c1ccccn1	inactive
Cn1c2ccccc2c2c(C(=O)N3CCN(c4ccc(F)cc4)CC3)cn(C3CCCCC3)c(=O)c21	active: 18.4 µM
COc1ccc(NC(=O)C2Cc3c(-c4cccc(C(N)=O)c4)ccnc3O2)cc1 (stereo not given)	active: 3.66 µM
Cc1ccc(NC(=O)CSC2=NN3CCCC(=O)N=C3S2)c(C)c1	inconclusive [inhibitor, single point]
O=C(OCC(=O)N1CCN(S(=O)(=O)c2ccccc2)CC1)c1ccc([N+](=O)[O-])o1	inactive
CCC(C(=O)OC)n1cnc2scc(-c3ccc(C)c(C)c3)c2c1=O (stereo not given)	inconclusive [inhibitor, single point]
Cc1cc(N2O[C@]34C=C[C@]25C[C@@H](O)CC[C@]5(C)C3CC[C@]2(C)[C@@H]([C@H](C)/C=C/[C@H](C)C(C)C)CC[C@H]24)no1 (stereo not given in full)	active: 9.2 µM
Cc1nnc2sc(SCC(=O)Nc3nccs3)nn2c1=O	inconclusive [inhibitor, single point]
COCCn1c(=O)c(-c2ccc(F)c(F)c2)nc2cncnc21	inactive
